{
  "source": "PubChem BioAssay AID504339",
  "about": "(National Center for Advancing Translational Sciences (NCATS), 2011)",
  "note": "Hit rate of the full screen: of about 390,000 compounds, about 17,000 (4.4%) were called active. Inconclusive results, whose numbers are uncertain, are shown with a selection of clear calls. Calls come from the whole dose curve; as a rule, active = well fitted inhibition curve with a large enough effect; inconclusive = small, poorly fitted or top-dose-only effect; inactive = no such curve, though single readings can be large or run the other way. Where the call is inconclusive, the potency comes from a doubtful curve fit. % is set by controls: 0 for no effect and ±100 for the full control effect; potency is the fitted concentration of half-maximal effect; tags give direction and shape of the fitted curve.",
  "data": [
    {"target": "Lysine-specific demethylase 4A (Homo sapiens) (UniProt O75164)", "sequence (O75164 whole entry, looked up, the tested form may be a part)": "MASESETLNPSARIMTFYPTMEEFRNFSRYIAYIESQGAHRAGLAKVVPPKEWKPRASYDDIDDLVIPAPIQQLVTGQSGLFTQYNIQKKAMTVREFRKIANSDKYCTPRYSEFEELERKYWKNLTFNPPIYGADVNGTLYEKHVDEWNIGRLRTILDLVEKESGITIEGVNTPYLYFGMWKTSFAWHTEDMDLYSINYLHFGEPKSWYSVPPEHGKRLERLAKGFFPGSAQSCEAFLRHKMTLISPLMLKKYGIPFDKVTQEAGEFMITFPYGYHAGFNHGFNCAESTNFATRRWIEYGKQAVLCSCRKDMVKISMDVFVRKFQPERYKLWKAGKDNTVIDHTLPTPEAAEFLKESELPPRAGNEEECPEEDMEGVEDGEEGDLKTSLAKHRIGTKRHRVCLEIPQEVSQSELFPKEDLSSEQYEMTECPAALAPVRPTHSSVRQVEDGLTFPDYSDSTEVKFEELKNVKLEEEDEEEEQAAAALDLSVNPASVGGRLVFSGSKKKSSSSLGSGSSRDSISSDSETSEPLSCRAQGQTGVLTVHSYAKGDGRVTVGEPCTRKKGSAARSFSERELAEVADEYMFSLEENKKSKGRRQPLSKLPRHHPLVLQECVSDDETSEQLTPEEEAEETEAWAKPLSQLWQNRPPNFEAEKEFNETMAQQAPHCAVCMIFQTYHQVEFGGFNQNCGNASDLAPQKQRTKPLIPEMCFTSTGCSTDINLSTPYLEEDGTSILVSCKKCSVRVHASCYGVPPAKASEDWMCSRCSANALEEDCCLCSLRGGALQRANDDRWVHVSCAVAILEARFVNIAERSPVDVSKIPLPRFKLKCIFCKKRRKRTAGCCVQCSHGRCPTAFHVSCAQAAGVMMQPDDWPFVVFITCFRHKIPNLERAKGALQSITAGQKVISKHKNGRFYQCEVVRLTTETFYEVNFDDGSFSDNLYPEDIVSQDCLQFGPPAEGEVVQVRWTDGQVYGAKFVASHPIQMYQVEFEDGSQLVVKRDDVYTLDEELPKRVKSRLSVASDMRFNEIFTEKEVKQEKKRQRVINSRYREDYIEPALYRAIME", "assay": "qHTS Assay for Inhibitors of JMJD2A-Tudor Domain; note: nearly all actives have a fitted effect of over 50% in size", "conditions": "AlphaScreen JMJD2A-Tudor / H3K4me3 peptide binding; activity change, negative = inhibition: at 114 µM (top of the series)", "values": [
      {"smiles": "CCOC(=O)N1CCN(C(=O)C2CCN(C(=O)c3ccccc3C)CC2)CC1", "Potency": "active: 7.08 µM"},
      {"smiles": "COc1ccc(Cl)cc1Nc1nnc(-c2ccncc2)s1", "Potency": "inconclusive: 44.7 µM [inhibitor, partial curve, poor fit]"},
      {"smiles": "O=S(=O)(c1ccc(Br)cc1)c1nc(-c2ccccc2)oc1NCc1cccnc1", "Potency": "inconclusive: 50.1 µM [inhibitor, partial curve]"},
      {"smiles": "O=C(c1ccccc1)N1CCN(C2CCCCCC2)CC1", "Potency": "active: 3.16 µM"},
      {"smiles": "Cc1cc(SCC(=O)NN)c2cc(Br)ccc2n1", "activity change, negative = inhibition": "inactive: -32.4%"},
      {"smiles": "CCN1C(=O)/C(=C/c2ccc(OCc3ccc(C(=O)O)cc3)c(Cl)c2)NC1=S", "Potency": "inconclusive: 50.1 µM [inhibitor, partial curve]"},
      {"smiles": "C#CCOc1ccc(Br)cc1/C=N/O", "activity change, negative = inhibition": "inactive: -7.79%"},
      {"smiles": "O=C1CSC(=S)N1/N=C/c1ccc(O)c([N+](=O)[O-])c1", "Potency": "active: 20 µM"},
      {"smiles": "Fc1ccccc1/C=N/n1c(C2CCCCC2)n[nH]c1=S", "Potency": "active: 39.8 µM"},
      {"smiles": "Cc1ccc(OCC(=O)Nc2cccc(OCc3cc(=O)n4ccccc4n3)c2)cc1C", "activity change, negative = inhibition": "inactive: -2.92%"},
      {"smiles": "CCOc1ccc2ncc(S(=O)(=O)c3ccccc3)c(N3CCN(c4ccccc4)CC3)c2c1", "Potency": "inconclusive: 25.1 µM [inhibitor, full curve, poor fit]"},
      {"smiles": "CC(=O)Nc1ccc(S(=O)(=O)N2CCN(c3ccc([N+](=O)[O-])c(NCCN4CCOCC4)c3)CC2)cc1", "Potency": "inconclusive: 44.7 µM [inhibitor, partial curve]"},
      {"smiles": "S=C(NCCc1c[nH]c2ccccc12)NC1CC1", "Potency": "inconclusive: 89.1 µM [inhibitor, single point]"},
      {"smiles": "COc1ccc(NS(=O)(=O)c2ccc(-n3nnc4ccccc43)c([N+](=O)[O-])c2)cc1", "Potency": "inconclusive: 50.1 µM [inhibitor, partial curve]"},
      {"smiles": "Nc1nc2ccc(Cl)cc2o1", "activity change, negative = inhibition": "inactive: -6.94%"},
      {"smiles": "Cc1ccc(CNC(=O)c2ccc(S(=O)(=O)N(C)C)cc2)n1C", "activity change, negative = inhibition": "inactive: -21.2%"},
      {"smiles": "O=C(Cc1ccccc1)N(Cc1cccnc1)c1nc2c(F)cccc2s1", "Potency": "active: 39.8 µM"},
      {"smiles": "COc1ccc(NC2CCCN(C(=O)CCCN3CCCCC3=O)C2)cc1", "note": "(stereo not given)", "activity change, negative = inhibition": "inactive: -18.2%"},
      {"smiles": "COc1ccc2c(-c3ccc(OCCN4CCCCC4)cc3)c(-c3ccccc3OC)sc2c1", "Potency": "active: 28.2 µM"},
      {"smiles": "O=C(Nc1cc(S(=O)(=O)N2CCOCC2)ccc1N1CCCCC1)c1ccccc1", "activity change, negative = inhibition": "inactive: -21.1%"},
      {"smiles": "COc1ccc(NC(=S)Nc2ccc(OCc3ccccc3)cc2)c(OC)c1", "Potency": "inconclusive: 35.5 µM [inhibitor, full curve]"},
      {"smiles": "CC12CCC(C(=O)N/N=C/c3ccc(O)cc3O)(OC1=O)C2(C)C", "note": "(stereo not given)", "Potency": "inconclusive: 39.8 µM [inhibitor, single point]"},
      {"smiles": "COc1ccc(/C(=N/O)C(C)(C)NO)cc1", "Potency": "active: 39.8 µM"},
      {"smiles": "CN1c2ccccc2C2(C)CCCC3=Cc4cccc([N+](=O)[O-])c4OC312", "note": "(stereo not given)", "Potency": "inconclusive: 31.6 µM [inhibitor, partial curve]"},
      {"smiles": "Cc1ccc(N=C2NC(=O)/C(=C/C=C/c3ccco3)S2)cc1", "Potency": "active: 35.5 µM"},
      {"smiles": "CN(C)/N=C/C=C1\\CC/C(=C\\c2ccc(F)c(F)c2)C1=O", "Potency": "inconclusive: 100 µM [inhibitor, partial curve]"},
      {"smiles": "Nc1ccc(Oc2ccc(Br)cc2)cc1", "Potency": "inconclusive: 56.2 µM [inhibitor, partial curve]"},
      {"smiles": "COc1ccc2cc(C(=O)N/N=C/c3sc4ccccc4c3O)ccc2c1", "Potency": "inconclusive: 35.5 µM [inhibitor, single point]"},
      {"smiles": "O=C(CNC(=O)c1ccccc1)NCC(=O)OCC(=O)c1ccc2ccccc2c1", "activity change, negative = inhibition": "inactive: -10% [at 57.1 µM]"},
      {"smiles": "CCN(CC)CCC(C)OC(c1ccccc1)c1ccccc1", "note": "(stereo not given)", "Potency": "active: 25.1 µM"},
      {"smiles": "Cc1cccc(C)c1OCC(O)CN1CCC(CN2C(=O)c3cccc4cccc(c34)C2=O)CC1", "note": "(stereo not given)", "Potency": "inconclusive: 79.4 µM [inhibitor, partial curve]"},
      {"smiles": "O=C(Nc1ccc(Br)cc1)C1CCCN(S(=O)(=O)c2ccc(Br)s2)C1", "note": "(stereo not given)", "activity change, negative = inhibition": "inactive: 3.08%"},
      {"smiles": "Cc1ccc(-n2c(C)cc(/C=N/NC(=O)c3ccncc3)c2C)cc1", "Potency": "inconclusive: 50.1 µM [inhibitor, partial curve]"},
      {"smiles": "CCCCCC(=O)NC(=S)NNC(=O)CC", "Potency": "active: 28.2 µM"},
      {"smiles": "CC1=CC(C)=Nc2ccccc2N1", "activity change, negative = inhibition": "inactive: -12.7%"},
      {"smiles": "CCOCCCNC(=O)C(c1ccccc1)N(Cc1cccs1)C(=O)c1ccc(NC(C)=O)cc1", "note": "(stereo not given)", "activity change, negative = inhibition": "inactive: 2.73%"},
      {"smiles": "Cc1cccc(-c2noc(CCCC(=O)NCc3ccco3)n2)c1", "activity change, negative = inhibition": "inactive: -19.8%"},
      {"smiles": "O=C(Nc1nnc(-c2ccc(Cl)cc2)o1)C1=COCCO1", "Potency": "inconclusive: 56.2 µM [inhibitor, partial curve]"},
      {"smiles": "CSc1nc(NCCN(C)C)c2sc3nc(-c4ccco4)c4c(c3c2n1)CCC4", "Potency": "active: 89.1 µM"},
      {"smiles": "COC(=O)c1cc(=O)n(Cc2ccc(OC)c(OC)c2)c(=Nc2ccc(F)cc2)s1", "Potency": "inconclusive: 31.6 µM [inhibitor, partial curve]"},
      {"smiles": "CCN(CC)c1ccc(/C=N/Nc2nc(C)cc(C)n2)cc1", "Potency": "inconclusive: 50.1 µM [inhibitor, partial curve]"},
      {"smiles": "Cc1ccc(C)c(Cn2c(C(C)NC(=O)c3ccc(F)cc3)nc3ccccc32)c1", "note": "(stereo not given)", "activity change, negative = inhibition": "inactive: 0.671%"},
      {"smiles": "Cc1cc(C)c(S(=O)(=O)c2cccc(Cl)c2)c(Cl)n1", "Potency": "inconclusive: 39.8 µM [inhibitor, single point]"},
      {"smiles": "O=C(CSc1nnc(-c2ccccc2)n1Cc1ccco1)NCc1ccc2c(c1)OCO2", "activity change, negative = inhibition": "inactive: -29.7%"},
      {"smiles": "O=C(CN1CCc2ccccc2C1)Nc1cc(S(=O)(=O)N2CCOCC2)ccc1N1CCCC1", "Potency": "inconclusive: 50.1 µM [inhibitor, partial curve]"},
      {"smiles": "CCCn1c(CCC(=O)O)ccc1-c1ccccc1", "Potency": "active: 35.5 µM"},
      {"smiles": "Cc1ccc(CNc2ccc(CNc3ncn[nH]3)cc2)cc1", "Potency": "inconclusive: 56.2 µM [inhibitor, partial curve]"},
      {"smiles": "O=C(Nc1ccccc1Oc1ccccc1)c1cc([N+](=O)[O-])ccc1Cl", "Potency": "inconclusive: 31.6 µM [inhibitor, full curve]"},
      {"smiles": "NCCCNc1nc(N)c([N+](=O)[O-])c(NC2CCCCC2)n1", "activity change, negative = inhibition": "inactive: -21.1%"},
      {"smiles": "Cc1ccc(C2CC(=O)C=C(NCc3ccccc3)C2)cc1", "note": "(stereo not given)", "activity change, negative = inhibition": "inactive: -10.8%"},
      {"smiles": "O=C(Cc1ccccc1)NCC(=O)OCc1ccc([N+](=O)[O-])cc1", "activity change, negative = inhibition": "inactive: -15.1%"},
      {"smiles": "O=C(CN(Cc1ccccc1)S(=O)(=O)c1ccccc1)N/N=C/c1ccc([N+](=O)[O-])cc1", "Potency": "inconclusive: 11.2 µM [inhibitor, full curve, poor fit]"},
      {"smiles": "CCOC(=O)c1ccc(NC(=O)Nc2ccc3c(c2)OCCO3)cc1", "Potency": "inconclusive: 14.1 µM [inhibitor, full curve, poor fit]"},
      {"smiles": "COc1ccc(CCNC(=S)NC(=O)c2cccc([N+](=O)[O-])c2)cc1OC", "Potency": "inconclusive: 56.2 µM [inhibitor, partial curve]"},
      {"smiles": "CCOC(=O)c1c(NC(=O)c2ccoc2C)sc(C(=O)N(C)C)c1C", "Potency": "inconclusive: 89.1 µM [inhibitor, single point]"},
      {"smiles": "CSc1ccc(/C=N/n2c(COc3ccccc3)n[nH]c2=S)cc1", "Potency": "inconclusive: 35.5 µM [inhibitor, partial curve]"},
      {"smiles": "CC(=O)c1cccc(NC(=O)CCS(=O)(=O)c2cc(Br)cc3c2N(C(=O)C2CC2)CC3)c1", "Potency": "inconclusive: 11.2 µM [inhibitor, partial curve, poor fit]"},
      {"smiles": "C#CCOCCOCCOCCNc1nc(N2CCN(C(=O)Cn3cc(CCCCN)nn3)CC2)nc(N2CCN(C(=O)[C@H]([C@@H](C)CC)n3cc(CCCCN)nn3)CC2)n1", "activity change, negative = inhibition": "inactive: -20.1%"},
      {"smiles": "Oc1ccc(N=Nc2nc(-c3ccccc3)c(-c3ccccc3)[nH]2)cc1", "Potency": "active: 22.4 µM"},
      {"smiles": "CCOC(=O)c1ncn2c1CN(C)C(=O)c1cc(F)ccc1-2", "activity change, negative = inhibition": "inactive: -6.21%"},
      {"smiles": "COc1ccc(CN2CCCC(C(=O)N(C)Cc3ccccc3)C2)cc1OC", "note": "(stereo not given)", "Potency": "active: 0.891 µM"},
      {"smiles": "CCCCn1c(N)c(N(CC)C(=O)c2cccs2)c(=O)[nH]c1=O", "activity change, negative = inhibition": "inactive: -9.59%"},
      {"smiles": "CC(C)COP(=O)(c1ccc(N(C)C)cc1)C(Nc1ccccc1)c1ccccc1", "note": "(stereo not given)", "activity change, negative = inhibition": "inactive: -35.1% [at 57.1 µM]"},
      {"smiles": "COc1ccc(-c2cc3cc(C(=O)O)ccn3c2C(=O)c2ccccc2)cc1", "Potency": "inconclusive: 20 µM [inhibitor, full curve, poor fit]"},
      {"smiles": "Nc1c(N(Cc2ccco2)C(=O)c2ccccc2F)c(=O)[nH]c(=O)n1Cc1ccccc1", "activity change, negative = inhibition": "inactive: -13.7%"},
      {"smiles": "CC(=O)c1cccc(-n2c(CCC(=O)O)ccc2-c2cccs2)c1", "Potency": "active: 56.2 µM"},
      {"smiles": "COc1ccc2c(c1)oc(=O)c1c3ccccc3[nH]c21", "Potency": "inconclusive: 63.1 µM [inhibitor, partial curve, poor fit]"},
      {"smiles": "COc1ccc(OC)c(C2CC(=O)c3c([nH]c(C(=O)OCC4CCCCC4)c3C)C2)c1", "note": "(stereo not given)", "activity change, negative = inhibition": "inactive: -16.4%"},
      {"smiles": "CN(Cc1cc(Cl)cc(Cl)c1O)Cc1c(O)ccc2ccccc12", "Potency": "inconclusive: 39.8 µM [inhibitor, full curve, poor fit]"},
      {"smiles": "CC(=O)Nc1ccc(C=NN=C2c3ccccc3-c3ccccc32)cc1", "Potency": "inconclusive: 20 µM [inhibitor, full curve]"},
      {"smiles": "CC(C)CCN1NC2(CCC(C)CC2)NC1=S", "note": "(stereo not given)", "Potency": "inconclusive: 89.1 µM [inhibitor, single point]"},
      {"smiles": "O=C(CNC(=O)c1cccs1)N/N=C/c1c[nH]c2ccccc12", "Potency": "inconclusive: 15.8 µM [inhibitor, full curve]"},
      {"smiles": "CC(=O)OCC1OC(OC2C[C@]3(C)C(CC(O)C4C([C@](C)(CCC=C(C)C)OC5OC(CO)C(O)C(O)C5O)CC[C@]43C)[C@@]3(C)CCC(O)C(C)(C)C23)C(O[C@@H]2OC(C)C(O)C(O)C2O)C(O)C1O", "note": "(stereo not given in full)", "activity change, negative = inhibition": "inactive: -11%"},
      {"smiles": "CCOC(=O)c1nnc2c(-c3ccc(OC)cc3)c(C)nn2c1N", "activity change, negative = inhibition": "inactive: -2.24%"},
      {"smiles": "O=C(Nc1cc2c3c(c1)C1CCCC1CN3CC1CCCC21)c1ccccc1", "note": "(stereo not given)", "Potency": "inconclusive: 28.2 µM [inhibitor, full curve]"}
    ]}
  ]
}
